Test results taken from the supplement of paper PMC10928670.

What was measured:
Assay in all cases: Agar dilution by CLSI M07.
cefixime = compound: C=CC1=C(C(=O)O)N2C(=O)[C@@H](NC(=O)/C(=N\OCC(=O)O)c3csc(N)n3)[C@H]2SC1 [cefixime]
penicillin G = compound: CC1(C)S[C@@H]2[C@H](NC(=O)Cc3ccccc3)C(=O)N2[C@H]1C(=O)O [penicillin G]
azithromycin = compound: CC[C@H]1OC(=O)[C@H](C)[C@@H](O[C@H]2C[C@@](C)(OC)[C@@H](O)[C@H](C)O2)[C@H](C)[C@@H](O[C@@H]2O[C@H](C)C[C@H](N(C)C)[C@H]2O)[C@](C)(O)C[C@@H](C)CN(C)[C@H](C)[C@@H](O)[C@]1(C)O [azithromycin]
spectinomycin = compound: CN[C@@H]1[C@H](O)[C@H](NC)[C@H]2O[C@@]3(O)C(=O)C[C@@H](C)O[C@H]3O[C@@H]2[C@H]1O [spectinomycin]
ceftriaxone = compound: CO/N=C(\C(=O)N[C@@H]1C(=O)N2C(C(=O)O)=C(CSc3nc(=O)c(O)nn3C)CS[C@H]12)c1csc(N)n1 [ceftriaxone]

Test System	MIC (cefixime)	MIC (penicillin G)	MIC (azithromycin)	MIC (spectinomycin)	MIC (ceftriaxone)
Neisseria gonorrhoeae isolate 60 (GyrA: Wild type, ParC: Wild type, mtrR: Wild type, penA: Type I NonMosaic, ponA: Wild type, porB: Wild type)	≤ 0.015 µg/mL	0.06 µg/mL	0.06 µg/mL	16 µg/mL	≤ 0.015 µg/mL
Neisseria gonorrhoeae isolate 68 (GyrA: Wild type, ParC: Wild type, mtrR: -35A Del, G45D, penA: Type II NonMosaic, A517G, ponA: L421P, porB: G120D)	0.03 µg/mL	2 µg/mL	0.5 µg/mL	16 µg/mL	0.03 µg/mL
Neisseria gonorrhoeae isolate 212 (GyrA: Wild type, ParC: Wild type, mtrR: -35A Del, penA: Type IV NonMosaic, A517G, G543S, ponA: L421P, porB: G120K, A121D)	0.03 µg/mL	> 64 µg/mL	0.5 µg/mL	16 µg/mL	0.06 µg/mL
Neisseria gonorrhoeae isolate 109 (GyrA: Wild type, ParC: Wild type, mtrR: -35A Del, G45D, penA: Type XIX NonMosaic, A517G, ponA: Wild type, porB: G120D, A121D)	≤ 0.015 µg/mL	0.125 µg/mL	≤ 0.03 µg/mL	16 µg/mL	≤ 0.015 µg/mL
Neisseria gonorrhoeae isolate 89 (GyrA: Wild type, ParC: Wild type, mtrR: Wild type, penA: Type XXII NonMosaic, A517G, ponA: L421P, porB: Wild type)	≤ 0.015 µg/mL	> 64 µg/mL	0.06 µg/mL	16 µg/mL	≤ 0.015 µg/mL
Neisseria gonorrhoeae isolate 142 (GyrA: S91F, ParC: S88P, mtrR: -35A Del, G45D, penA: Type X Mosaic, N513Y, ponA: L421P, porB: G120K, A121D)	0.25 µg/mL	2 µg/mL	0.25 µg/mL	64 µg/mL	0.125 µg/mL
Neisseria gonorrhoeae isolate 78 (GyrA: S91F, ParC: Wild type, mtrR: G45D, penA: Type IV NonMosaic, A517G, G543S, ponA: L421P, porB: G120K, A121D)	0.03 µg/mL	2 µg/mL	0.06 µg/mL	16 µg/mL	0.06 µg/mL
Neisseria gonorrhoeae isolate 14 (GyrA: Wild type, ParC: Wild type, mtrR: Wild type, penA: Type I NonMosaic, ponA: Wild type, porB: Wild type)	≤ 0.015 µg/mL	1 µg/mL	0.5 µg/mL	16 µg/mL	≤ 0.015 µg/mL
Neisseria gonorrhoeae isolate 227 (GyrA: Wild type, ParC: Wild type, mtrR: -35A Del, G45D, penA: Type 252 SemiMosaic, A517G, ponA: Wild type, porB: Wild type)	≤ 0.015 µg/mL	0.25 µg/mL	≤ 0.03 µg/mL	16 µg/mL	≤ 0.015 µg/mL
Neisseria gonorrhoeae isolate 11 (GyrA: Wild type, ParC: Wild type, mtrR: G45D, penA: Type IV NonMosaic, A517G, G543S, ponA: L421P, porB: G120K, A121D)	0.06 µg/mL	4 µg/mL	0.125 µg/mL	32 µg/mL	0.06 µg/mL
Neisseria gonorrhoeae isolate 213 (GyrA: Wild type, ParC: Wild type, mtrR: A39T, penA: WT NonMosaic, ponA: Wild type, porB: porB1a)	≤ 0.015 µg/mL	0.06 µg/mL	0.25 µg/mL	128 µg/mL	≤ 0.015 µg/mL
Neisseria gonorrhoeae isolate 66 (GyrA: Wild type, ParC: Wild type, mtrR: -35A Del, penA: Type XXII NonMosaic, A517G, ponA: L421P, porB: G120K, A121D)	0.06 µg/mL	> 64 µg/mL	0.25 µg/mL	32 µg/mL	0.03 µg/mL
Neisseria gonorrhoeae isolate 41 (GyrA: S91F, D95G, ParC: Wild type, mtrR: -35A Del, penA: Type V Nonmosaic, A517G, G543S, ponA: L421P, porB: G120K, A121D)	≤ 0.015 µg/mL	2 µg/mL	0.25 µg/mL	16 µg/mL	0.03 µg/mL
Neisseria gonorrhoeae isolate 18 (GyrA: Wild type, ParC: Wild type, mtrR: -35A Del, penA: Type XXII NonMosaic, A517G, ponA: L421P, porB: G120D, A121D)	≤ 0.015 µg/mL	0.25 µg/mL	0.125 µg/mL	16 µg/mL	≤ 0.015 µg/mL
Neisseria gonorrhoeae isolate 75 (GyrA: Wild type, ParC: Wild type, mtrR: G45D, penA: Type 249 NonMosaic, A517G, ponA: Wild type, porB: G120D)	≤ 0.015 µg/mL	0.25 µg/mL	≤ 0.03 µg/mL	16 µg/mL	≤ 0.015 µg/mL
Neisseria gonorrhoeae isolate 104 (GyrA: D95N, ParC: Wild type, mtrR: -35A Del, penA: Type XII NonMosaic, A517G, ponA: L421P, porB: G120K, A121N)	0.03 µg/mL	16 µg/mL	0.5 µg/mL	32 µg/mL	0.03 µg/mL
Neisseria gonorrhoeae isolate 163 (GyrA: Wild type, ParC: Wild type, mtrR: G45D, penA: Type I NonMosaic, ponA: L421P, porB: G120D, A121D)	≤ 0.015 µg/mL	0.25 µg/mL	0.06 µg/mL	8 µg/mL	≤ 0.015 µg/mL

Test System	MIC (cefixime)	MIC (penicillin G)	MIC (azithromycin)	MIC (spectinomycin)	MIC (ceftriaxone)
Neisseria gonorrhoeae isolate 42 (GyrA: S91F, D95G, ParC: Wild type, mtrR: G45D, penA: Type IV NonMosaic, A517G, G543S, ponA: L421P, porB: G120K, A121D)	≤ 0.015 µg/mL	1 µg/mL	0.25 µg/mL	16 µg/mL	0.03 µg/mL
Neisseria gonorrhoeae isolate 169 (GyrA: Wild type, ParC: Wild type, mtrR: Wild type, penA: Type II NonMosaic, A517G, ponA: Wild type, porB: G120K, A121G)	≤ 0.015 µg/mL	0.25 µg/mL	0.06 µg/mL	32 µg/mL	≤ 0.015 µg/mL
Neisseria gonorrhoeae isolate 81 (GyrA: Wild type, ParC: Wild type, mtrR: -35A Del, penA: Type XXII NonMosaic, A517G, ponA: L421P, porB: G120K, A121D)	≤ 0.015 µg/mL	1 µg/mL	0.25 µg/mL	64 µg/mL	≤ 0.015 µg/mL
Neisseria gonorrhoeae isolate 119 (GyrA: D95G, ParC: Wild type, mtrR: Wild type, penA: Type I NonMosaic, ponA: Wild type, porB: Wild type)	≤ 0.015 µg/mL	0.25 µg/mL	0.06 µg/mL	16 µg/mL	≤ 0.015 µg/mL
Neisseria gonorrhoeae isolate 143 (GyrA: S91F, D95N, ParC: S88P, mtrR: -35A Del, G45D, penA: Type X Mosaic, N513Y, ponA: L421P, porB: G120K, A121D)	0.5 µg/mL	4 µg/mL	0.125 µg/mL	16 µg/mL	0.125 µg/mL
Neisseria gonorrhoeae isolate 47 (GyrA: S91F, D95N, ParC: S88P, mtrR: -35A Del, G45D, penA: Type X Mosaic, N513Y, ponA: L421P, porB: G120K, A121D)	0.5 µg/mL	4 µg/mL	0.25 µg/mL	32 µg/mL	0.125 µg/mL
Neisseria gonorrhoeae isolate 29 (GyrA: Wild type, ParC: Wild type, mtrR: Wild type, penA: Type I NonMosaic, ponA: Wild type, porB: Wild type)	0.03 µg/mL	0.06 µg/mL	0.06 µg/mL	32 µg/mL	0.03 µg/mL
Neisseria gonorrhoeae isolate 200 (GyrA: Wild type, ParC: Wild type, mtrR: G45D, penA: Type XXII NonMosaic, A517G, ponA: Wild type, porB: Wild type)	≤ 0.015 µg/mL	0.25 µg/mL	≤ 0.03 µg/mL	8 µg/mL	≤ 0.015 µg/mL
Neisseria gonorrhoeae isolate 20 (GyrA: Wild type, ParC: Wild type, mtrR: -35A Del, G45D, penA: Type II NonMosaic, A517G, ponA: L421P, porB: G120D)	≤ 0.015 µg/mL	1 µg/mL	0.5 µg/mL	16 µg/mL	0.03 µg/mL
Neisseria gonorrhoeae isolate 92 (GyrA: Wild type, ParC: Wild type, mtrR: Wild type, penA: Type I NonMosaic, ponA: Wild type, porB: Wild type)	≤ 0.015 µg/mL	0.06 µg/mL	≤ 0.03 µg/mL	32 µg/mL	≤ 0.015 µg/mL
Neisseria gonorrhoeae isolate 87 (GyrA: Wild type, ParC: Wild type, mtrR: -35A Del, G45D, penA: Type I NonMosaic, ponA: L421P, porB: porB1a)	≤ 0.015 µg/mL	0.06 µg/mL	≤ 0.03 µg/mL	32 µg/mL	≤ 0.015 µg/mL
Neisseria gonorrhoeae isolate 160 (GyrA: Wild type, ParC: Wild type, mtrR: -35A Del, penA: Type XXII NonMosaic, A517G, ponA: L421P, porB: G120D, A121D)	0.03 µg/mL	2 µg/mL	0.5 µg/mL	64 µg/mL	0.03 µg/mL
Neisseria gonorrhoeae isolate 63 (GyrA: Wild type, ParC: Wild type, mtrR: G45D, penA: Type II NonMosaic, A517G, ponA: L421P, porB: porB1a)	≤ 0.015 µg/mL	0.5 µg/mL	0.06 µg/mL	8 µg/mL	≤ 0.015 µg/mL
Neisseria gonorrhoeae isolate 229 (GyrA: S91F, D95N, ParC: S88P, mtrR: -35A Del, G45D, penA: Type X Mosaic, N513Y, ponA: L421P, porB: G120K, A121D)	0.5 µg/mL	2 µg/mL	0.5 µg/mL	32 µg/mL	0.25 µg/mL
Neisseria gonorrhoeae isolate 242 (GyrA: Wild type, ParC: Wild type, mtrR: -35A Del, A39T, penA: Type XXII NonMosaic, A517G, ponA: L421P, porB: G120D)	≤ 0.015 µg/mL	> 64 µg/mL	1 µg/mL	16 µg/mL	≤ 0.015 µg/mL
Neisseria gonorrhoeae isolate 27 (GyrA: Wild type, ParC: Wild type, mtrR: G45D, penA: Type XXII NonMosaic, A517G, ponA: L421P, porB: porB1a)	≤ 0.015 µg/mL	0.5 µg/mL	≤ 0.03 µg/mL	16 µg/mL	≤ 0.015 µg/mL

MIC of N. gonorrhoeae strains collected 1971-2005, agar dilution (CLSI M07); ranges 0.03-64 mg/L (penicillin, azithromycin), 0.015-1 (cefixime, ceftriaxone), 0.5-256 (spectinomycin); higher = less susceptible. No active / inactive call per row; the paper counts cefixime and ceftriaxone above 0.25 and azithromycin above 1 mg/L as non-susceptible. The source says 'penicillin'; penicillin G is assumed. Isolates are numbered anew.
